According to PMC8976005:
Where a chain is given by its changes, count along the chain named. Numbers in names are those of the source. Results are given in words; binding and its absence hold for the method and conditions named. In cells and extracts the contact can be indirect. Some results given as binding are weak or reduced against the parent protein; the word gives no strength.

Protein sequences, listed by entry. Tags and fused reporters are not part of them.
UniProt P38606: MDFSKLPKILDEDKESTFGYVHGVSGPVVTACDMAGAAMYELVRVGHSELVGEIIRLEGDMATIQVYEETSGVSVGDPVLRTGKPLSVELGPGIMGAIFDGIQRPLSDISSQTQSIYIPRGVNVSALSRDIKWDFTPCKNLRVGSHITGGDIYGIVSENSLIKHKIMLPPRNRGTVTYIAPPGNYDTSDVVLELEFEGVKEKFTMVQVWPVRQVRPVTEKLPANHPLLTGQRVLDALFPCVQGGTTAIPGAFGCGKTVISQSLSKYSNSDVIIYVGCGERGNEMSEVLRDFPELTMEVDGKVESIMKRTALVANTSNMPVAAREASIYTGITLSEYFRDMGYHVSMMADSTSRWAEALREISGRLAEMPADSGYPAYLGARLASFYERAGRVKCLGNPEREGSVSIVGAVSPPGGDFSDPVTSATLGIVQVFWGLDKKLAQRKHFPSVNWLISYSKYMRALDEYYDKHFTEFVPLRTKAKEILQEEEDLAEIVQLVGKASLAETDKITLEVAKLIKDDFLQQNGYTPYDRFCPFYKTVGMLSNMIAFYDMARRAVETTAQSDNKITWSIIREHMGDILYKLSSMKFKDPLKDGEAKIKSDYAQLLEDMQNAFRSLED
UniProt Q8N122: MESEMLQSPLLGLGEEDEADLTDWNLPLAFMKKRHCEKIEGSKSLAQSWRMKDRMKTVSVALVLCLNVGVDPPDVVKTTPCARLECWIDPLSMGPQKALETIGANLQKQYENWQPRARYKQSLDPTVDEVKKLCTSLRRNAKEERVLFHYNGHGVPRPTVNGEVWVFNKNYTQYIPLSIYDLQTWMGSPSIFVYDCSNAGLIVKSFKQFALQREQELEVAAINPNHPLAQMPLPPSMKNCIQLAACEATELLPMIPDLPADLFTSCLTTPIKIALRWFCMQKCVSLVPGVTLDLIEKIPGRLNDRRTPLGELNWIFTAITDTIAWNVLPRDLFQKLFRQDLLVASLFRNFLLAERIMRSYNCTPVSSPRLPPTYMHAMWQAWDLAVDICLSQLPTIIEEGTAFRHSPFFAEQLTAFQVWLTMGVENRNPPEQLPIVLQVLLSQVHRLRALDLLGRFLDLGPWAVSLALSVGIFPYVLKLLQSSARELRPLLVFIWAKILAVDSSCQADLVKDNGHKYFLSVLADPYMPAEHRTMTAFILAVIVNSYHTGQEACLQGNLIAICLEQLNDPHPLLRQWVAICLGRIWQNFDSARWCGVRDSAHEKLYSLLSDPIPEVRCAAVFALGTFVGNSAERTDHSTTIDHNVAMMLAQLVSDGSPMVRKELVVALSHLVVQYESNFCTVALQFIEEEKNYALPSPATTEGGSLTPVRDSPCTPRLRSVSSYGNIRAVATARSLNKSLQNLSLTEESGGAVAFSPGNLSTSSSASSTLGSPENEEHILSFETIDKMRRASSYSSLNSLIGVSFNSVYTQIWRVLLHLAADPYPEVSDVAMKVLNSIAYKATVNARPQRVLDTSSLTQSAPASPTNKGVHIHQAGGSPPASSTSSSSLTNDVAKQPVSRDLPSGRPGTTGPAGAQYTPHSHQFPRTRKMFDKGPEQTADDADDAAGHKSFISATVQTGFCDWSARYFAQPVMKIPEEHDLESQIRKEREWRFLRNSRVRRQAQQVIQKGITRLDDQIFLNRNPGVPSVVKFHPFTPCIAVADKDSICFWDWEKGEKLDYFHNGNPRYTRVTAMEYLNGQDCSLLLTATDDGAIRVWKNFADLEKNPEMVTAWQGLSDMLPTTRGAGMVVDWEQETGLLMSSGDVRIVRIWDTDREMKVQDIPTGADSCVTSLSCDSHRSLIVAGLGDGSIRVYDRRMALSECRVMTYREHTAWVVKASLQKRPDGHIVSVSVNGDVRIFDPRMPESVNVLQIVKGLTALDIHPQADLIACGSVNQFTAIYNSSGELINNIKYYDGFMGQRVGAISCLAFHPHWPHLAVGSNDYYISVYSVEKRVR
UniProt Q6R327: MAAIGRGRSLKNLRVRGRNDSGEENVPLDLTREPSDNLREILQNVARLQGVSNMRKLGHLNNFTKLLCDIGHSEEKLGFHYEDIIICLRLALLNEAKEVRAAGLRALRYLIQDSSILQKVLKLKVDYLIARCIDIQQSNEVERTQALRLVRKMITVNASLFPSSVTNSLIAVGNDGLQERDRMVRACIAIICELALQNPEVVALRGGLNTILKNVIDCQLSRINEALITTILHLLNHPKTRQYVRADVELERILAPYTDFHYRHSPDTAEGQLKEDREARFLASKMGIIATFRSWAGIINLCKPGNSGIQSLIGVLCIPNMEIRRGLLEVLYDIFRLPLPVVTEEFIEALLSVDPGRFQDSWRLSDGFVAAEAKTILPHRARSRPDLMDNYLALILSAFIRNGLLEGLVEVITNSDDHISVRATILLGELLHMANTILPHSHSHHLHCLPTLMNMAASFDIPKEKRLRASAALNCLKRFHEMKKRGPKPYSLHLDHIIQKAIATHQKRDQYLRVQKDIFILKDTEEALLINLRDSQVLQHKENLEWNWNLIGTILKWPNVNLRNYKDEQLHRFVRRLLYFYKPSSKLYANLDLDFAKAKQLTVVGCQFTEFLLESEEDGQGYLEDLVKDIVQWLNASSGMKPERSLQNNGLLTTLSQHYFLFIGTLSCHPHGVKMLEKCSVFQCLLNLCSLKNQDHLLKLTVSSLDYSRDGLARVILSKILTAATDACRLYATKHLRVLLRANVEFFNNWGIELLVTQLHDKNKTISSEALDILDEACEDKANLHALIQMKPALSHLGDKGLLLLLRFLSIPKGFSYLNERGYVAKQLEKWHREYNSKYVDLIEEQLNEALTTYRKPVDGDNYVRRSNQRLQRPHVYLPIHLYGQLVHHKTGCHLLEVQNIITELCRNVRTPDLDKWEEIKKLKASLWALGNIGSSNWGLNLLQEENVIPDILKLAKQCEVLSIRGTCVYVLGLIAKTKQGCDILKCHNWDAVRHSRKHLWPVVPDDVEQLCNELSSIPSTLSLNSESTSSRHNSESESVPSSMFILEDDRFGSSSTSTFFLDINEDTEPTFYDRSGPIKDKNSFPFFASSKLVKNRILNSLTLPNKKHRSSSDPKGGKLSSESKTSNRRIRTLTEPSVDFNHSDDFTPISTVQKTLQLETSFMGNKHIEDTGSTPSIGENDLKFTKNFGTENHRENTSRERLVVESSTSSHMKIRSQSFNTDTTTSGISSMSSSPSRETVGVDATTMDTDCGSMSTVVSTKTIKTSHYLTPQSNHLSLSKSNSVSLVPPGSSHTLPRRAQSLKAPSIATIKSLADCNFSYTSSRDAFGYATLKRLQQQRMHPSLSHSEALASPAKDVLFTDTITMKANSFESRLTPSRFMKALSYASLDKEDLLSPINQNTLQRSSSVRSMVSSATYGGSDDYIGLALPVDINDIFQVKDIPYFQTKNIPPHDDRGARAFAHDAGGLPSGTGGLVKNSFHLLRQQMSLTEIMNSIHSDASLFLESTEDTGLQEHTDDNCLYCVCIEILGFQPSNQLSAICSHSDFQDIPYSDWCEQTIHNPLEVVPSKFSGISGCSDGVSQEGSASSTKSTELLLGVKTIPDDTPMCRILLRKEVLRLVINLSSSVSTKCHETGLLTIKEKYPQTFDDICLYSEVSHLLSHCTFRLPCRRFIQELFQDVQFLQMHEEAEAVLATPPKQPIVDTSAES

B1: STK11IP (protein, UniProt Q8N1F8 1-1088)
chain: MTTAQRDSLLWKLAGLLRESGDVVLSGCSTLSLLTPTLQQLNHVFELHLGPWGPGQTGFVALPSHPADSPVILQLQFLFDVLQKTLSLKLVHVAGPGPTGPIKIFPFKSLRHLELRGVPLHCLHGLRGIYSQLETLICSRSLQALEELLSACGGDFCSALPWLALLSANFSYNALTALDSSLRLLSALRFLNLSHNQVQDCQGFLMDLCELHHLDISYNRLHLVPRMGPSGAALGVLILRGNELRSLHGLEQLRNLRHLDLAYNLLEGHRELSPLWLLAELRKLYLEGNPLWFHPEHRAATAQYLSPRARDAATGFLLDGKVLSLTDFQTHTSLGLSPMGPPLPWPVGSTPETSGGPDLSDSLSSGGVVTQPLLHKVKSRVRVRRASISEPSDTDPEPRTLNPSPAGWFVQQHPELELMSSFRERFGRNWLQYRSHLEPSGNPLPATPTTSAPSAPPASSQGPDTAPRPSPPQEEARGPQESPQKMSEEVRAEPQEEEEEKEGKEEKEEGEMVEQGEEEAGEEEEEEQDQKEVEAELCRPLLVCPLEGPEGVRGRECFLRVTSAHLFEVELQAARTLERLELQSLEAAEIEPEAQAQRSPRPTGSDLLPGAPILSLRFSYICPDRQLRRYLVLEPDAHAAVQELLAVLTPVTNVAREQLGEARDLLLGRFQCLRCGHEFKPEEPRMGLDSEEGWRPLFQKTESPAVCPNCGSDHVVLLAVSRGTPNRERKQGEQSLAPSPSASPVCHPPGHGDHLDRAKNSPPQAPSTRDHGSWSLSPPPERCGLRSVDHRLRLFLDVEVFSDAQEEFQCCLKVPVALAGHTGEFMCLVVVSDRRLYLLKVTGEMREPPASWLQLTLAVPLQDLSGIELGLAGQSLRLEWAAGAGRCVLLPRDARHCRAFLEELLDVLQSLPPAWRNCVSATEEEVTPQHRLWPLLEKDSSLEARQFFYLRAFLVEGPSTCLVSLLLTPSTLFLLDEDAAGSPAEPSPPAASGEASEKVPPSGPGPAVRVREQQPLSSLSSVLLYRSAPEDLRLLFYDEVSRLESFWALRVVCQEQLTALLAWIREPWEELFSIGLRTVIQEALALDR
B2: P5 domain of STK11IP (amino acid 360-770) (domain or fragment, UniProt Q8N1F8 360-770)
chain: SDSLSSGGVVTQPLLHKVKSRVRVRRASISEPSDTDPEPRTLNPSPAGWFVQQHPELELMSSFRERFGRNWLQYRSHLEPSGNPLPATPTTSAPSAPPASSQGPDTAPRPSPPQEEARGPQESPQKMSEEVRAEPQEEEEEKEGKEEKEEGEMVEQGEEEAGEEEEEEQDQKEVEAELCRPLLVCPLEGPEGVRGRECFLRVTSAHLFEVELQAARTLERLELQSLEAAEIEPEAQAQRSPRPTGSDLLPGAPILSLRFSYICPDRQLRRYLVLEPDAHAAVQELLAVLTPVTNVAREQLGEARDLLLGRFQCLRCGHEFKPEEPRMGLDSEEGWRPLFQKTESPAVCPNCGSDHVVLLAVSRGTPNRERKQGEQSLAPSPSASPVCHPPGHGDHLDRAKNSPPQAPSTRD
B3: S404A-STK11IP (protein, UniProt Q8N1F8 1-1088)
chain: B1 chain with S404A
B4: S404D-STK11IP (protein, UniProt Q8N1F8 1-1088)
chain: B1 chain with S404D
B5: P5 domain of STK11IP bearing the S404A mutation (domain or fragment, UniProt Q8N1F8 360-770)
chain: B2 chain with S45A
B6: S404D P5 mutant of STK11IP (domain or fragment, UniProt Q8N1F8 360-770)
chain: B2 chain with S45D
B7: STK11IP F567A (protein, UniProt Q8N1F8 1-1088)
chain: B1 chain with F567A

How the values were obtained:
Experiment in all cases: co-IP; HEK293T cells 24-36 h after transfection, lysed in BLB lysis buffer or IP buffer (0.5% NP-40, 150 mM NaCl, 50 mM Tris-HCl, pH 7.5); anti-FLAG or anti-HA beads overnight at 4 °C; immunoblot
ATP6V1A = ATP6V1A (UniProt P38606)
PRAS40 = PRAS40 (UniProt Q96B36)
Raptor = Raptor (UniProt Q8N122)
Rictor = Rictor (UniProt Q6R327)

binding (ATP6V1A) | binding (PRAS40) | binding (Raptor) | binding (Rictor) | Binder
binds | binds | binds | no binding | B1
binds | – | – | – | B2
binds | – | – | – | B3
binds | – | – | – | B4
binds | – | – | – | B5
binds | – | – | – | B6
– | – | no binding | – | B7
